# Source: paper PMC4336329 (PLoS ONE, 2015)
# The whole screen tested about 310,000 compounds, of which about 14,000 (4.5%) showed an effect of 50% or more. Effects have a minus sign here. The list shows a part of the results.
# Target: human ether-à-go-go-related gene (hERG) potassium channel (human, UniProt Q12809)
# Assay: primary screen, population patch clamp on CHO cells stably expressing hERG
# 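Note: peak tail current of the secondary pulse compared with the same well before compound.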
# Chain of human ether-à-go-go-related gene (hERG) potassium channel (Q12809 whole entry, looked up): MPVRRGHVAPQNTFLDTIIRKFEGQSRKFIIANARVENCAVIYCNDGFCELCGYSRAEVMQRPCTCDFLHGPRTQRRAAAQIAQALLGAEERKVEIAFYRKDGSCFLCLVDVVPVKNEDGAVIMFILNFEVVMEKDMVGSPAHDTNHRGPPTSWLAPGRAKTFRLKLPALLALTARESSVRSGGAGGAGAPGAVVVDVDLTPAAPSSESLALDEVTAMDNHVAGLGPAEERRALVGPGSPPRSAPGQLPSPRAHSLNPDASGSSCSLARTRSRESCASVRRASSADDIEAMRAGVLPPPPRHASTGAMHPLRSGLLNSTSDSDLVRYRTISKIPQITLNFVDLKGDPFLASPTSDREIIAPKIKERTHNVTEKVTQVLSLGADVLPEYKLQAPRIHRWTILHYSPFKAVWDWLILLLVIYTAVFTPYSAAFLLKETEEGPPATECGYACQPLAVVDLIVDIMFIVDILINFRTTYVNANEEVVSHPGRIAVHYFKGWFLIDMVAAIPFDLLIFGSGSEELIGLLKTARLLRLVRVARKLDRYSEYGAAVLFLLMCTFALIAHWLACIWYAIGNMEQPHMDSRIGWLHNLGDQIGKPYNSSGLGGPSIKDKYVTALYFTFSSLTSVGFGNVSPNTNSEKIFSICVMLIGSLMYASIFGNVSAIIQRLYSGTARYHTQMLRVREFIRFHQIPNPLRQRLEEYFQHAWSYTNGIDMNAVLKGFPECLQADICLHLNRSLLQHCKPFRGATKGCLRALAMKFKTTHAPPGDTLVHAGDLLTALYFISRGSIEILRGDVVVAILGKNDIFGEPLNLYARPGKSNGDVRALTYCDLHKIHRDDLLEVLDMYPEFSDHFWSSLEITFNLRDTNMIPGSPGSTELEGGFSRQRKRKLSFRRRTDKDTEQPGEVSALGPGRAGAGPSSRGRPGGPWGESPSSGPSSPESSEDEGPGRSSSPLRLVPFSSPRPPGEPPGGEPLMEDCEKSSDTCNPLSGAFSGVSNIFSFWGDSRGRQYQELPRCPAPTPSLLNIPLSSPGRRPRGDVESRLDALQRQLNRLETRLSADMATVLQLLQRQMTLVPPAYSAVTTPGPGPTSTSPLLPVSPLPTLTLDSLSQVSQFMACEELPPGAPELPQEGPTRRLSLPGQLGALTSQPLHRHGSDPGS
row,Compound,"hERG current change (%, negative = inhibition) at 10uM [%]"
1,O=C(N/N=C/c1ccccc1)c1ccc(CN2C(=O)c3cccc4cccc2c34)cc1,-4.32
2,CN(c1ccccc1)S(=O)(=O)c1cccc(C(=O)NC2CCCCC2)c1,-18
3,CCOC(=O)c1c(-c2ccc(OCC)cc2)csc1NC(=O)CCN1C(=O)c2ccccc2C1=O,21.2
4,Cc1ccc(-c2nc(CCN3C(=O)c4ccccc4C3=O)cs2)cc1,-19.6
5,CCOc1ccccc1Nc1nnc(SCC(=O)Nc2cccc(S(=O)(=O)NC3=NCCCCC3)c2)s1,5.08
6,O=c1c2[nH]c3ccc(F)cc3c2nc2n1CCCS2,-3.41
7,Cc1ccc(C)c(NC(=O)CSc2n[nH]c(-c3ccncc3)n2)c1,7.24
8,COc1ccc(C(=O)c2nc3c(n2O)CCCCC3)cc1,-19
9,CCCCCn1c(=O)[nH]c2cc(C(=O)Nc3ccc(OC)cc3)ccc2c1=O,14.9
10,CN(CC1CCOCC1)C(=O)CC1C(=O)NCCN1Cc1ccc(Cl)c(F)c1 (stereo not drawn),10.4
11,COc1ccc(CN2C(=O)NC3(CCCCC3)C2=O)cc1F,-15.8
12,Clc1cccc(Cl)c1Cn1nnc(-c2cccs2)n1,-1.03
13,CCCc1noc2c1/C(=N\O)CCC2,13.1
14,Cc1c(C(c2cccc([N+](=O)[O-])c2O)c2c(C)n(C)n(-c3ccccc3)c2=O)c(=O)n(-c2ccccc2)n1C,-2.28
15,CCN1/C(=C/C(C)=C/c2sc3ccccc3[n+]2CC)Sc2ccccc21.[I-],-78.8
16,COCCCNC(=S)N1CCC(C(=O)c2ccc3c(c2)OCCO3)CC1,-11.7
17,CCn1c(=O)cc(SCC(=O)N(C)Cc2ccccc2)c2ccccc21,-19.6
18,Cc1ccc(NC(=O)CSCC(=O)Nc2sccc2C#N)cc1,0.712
19,O=C(NC1CCCC1)C(c1ccccc1)N(C(=O)c1csnn1)c1ccccc1F (stereo not drawn),0.989
20,Cc1ccc(-c2nnc3sc(C4COc5ccccc5O4)nn23)cc1 (stereo not drawn),-1.05
21,Nc1nc2n(n1)C(c1ccco1)CC(c1ccc(F)cc1)N2 (stereo not drawn),-4.9
22,O=C(CNC(=O)C1CCCCC1)OCn1nnc2ccccc2c1=O,7.18
23,Cc1noc(C)c1CSCC(=O)Nc1nc2ccc(F)cc2s1,-16.7
24,Cc1ccc(C(O)P(=O)(OC(C)C)c2ccc(N(C)C)cc2)cc1 (stereo not drawn),11.5
25,CC(=O)Nc1ccc(S(=O)(=O)Nc2nc3ccccc3nc2Nc2cccc(S(N)(=O)=O)c2)cc1,10.3
26,Cc1c(NC(=O)Cn2[nH]c(=O)c3ccccc3c2=O)c(=O)n(-c2ccccc2)n1C,12.5
27,Cc1cc(S(=O)(=O)Nc2cccnc2)c(Cl)cc1Cl,-1.49

row,Compound,"hERG current change (%, negative = inhibition) at 10uM [%]"
1,CC(C)(C)Nc1ncnc2c1cnn2-c1ccccc1,-4.54
2,CCc1cc2cccc(C)c2nc1SCC(=O)c1ccc(NC(C)=O)cc1,-6.78
3,Cc1ccc2oc(=O)n(Cc3ccccc3OC(C)C)c2c1,5.7
4,CO/N=C/NC(=O)c1c(OC)ccnc1Oc1ccc(F)cc1,-5.89
5,O=C(c1ccc2c(Cl)c3c(nc2c1)CCCC3)N1CCN(c2ccc(F)cc2)CC1,-2.1
6,O=C(Nc1ccc(Br)cc1)c1cnc[nH]1,12.7
7,Cc1ccc(NC(=O)CCn2c(=S)oc3ccccc32)cc1F,27.5
8,COc1cccc(S(=O)(=O)NC2CCN(C#N)C2)c1 (stereo not drawn),9.23
9,COc1ccc(NC(=O)N(CCC(C)C)C(C)c2ccccn2)c(OC)c1 (stereo not drawn),-10
10,C=CC[C@H]1CC(Cc2ccccc2)=C[C@H](CC=C)N1.Cl,-35
11,O=C(Nc1ncc(Cc2cccc(C(F)(F)F)c2)s1)C1CCCO1 (stereo not drawn),-4.12
12,O=C(CCC(=O)N(Cc1ccco1)C(C(=O)NC1CCCC1)c1ccncc1)Nc1cccnc1 (stereo not drawn),1.77
13,CCc1nnc(NC(=O)C2CCCO2)s1 (stereo not drawn),22.1
14,CCc1cc(Cn2nc(C(=O)O)cc2-c2ccccc2)on1,-14.8
15,C#CCOCCOCCOCCNc1nc(N2CCN(C(=O)[C@H]([C@@H](C)O)n3cc(CCCC[NH3+])nn3)CC2)nc(N2CCN(C(=O)[C@H]([C@@H](C)CC)n3cc(CCC[NH+]=C(N)N)nn3)CC2)n1.[Cl-],11.5
16,CN(C)C(CNC(=O)c1ccc2c(c1)S(=O)(=O)c1ccccc1C2=O)c1ccco1 (stereo not drawn),-12.7
17,O=C(CCN1C(=O)C2C3CCC(C3)C2C1=O)Nc1ccccc1C(F)(F)F (stereo not drawn),10.4
18,COc1ccc(Nc2ccc(S(=O)(=O)N3CCCCC3)cc2[N+](=O)[O-])cc1OC,-8.72
19,COc1cccc(C2C3=C(CCCC3=O)Nc3[nH]n(-c4ccccc4)c(=O)c32)c1 (stereo not drawn),20
20,Cc1ccccc1NC(=O)c1ccc(C)c(S(=O)(=O)Nc2ccccn2)c1,13.1
21,Cc1ccc(OCc2ccc(C#N)cc2)c(C(=O)c2cc(C#N)c(=O)n(C3CC3)c2)c1,5.46
22,CC(C)CN(CCC(=O)O)CC(C)C,4.45
23,CN1CC(C(=O)c2ccc(Cl)cc2)C(c2ccc(N(C)C)cc2)C1 (stereo not drawn),-57.9
24,CCCC(=O)Nc1ccc(Cl)c(NC(=S)NC(=O)c2ccco2)c1,4.78
25,Cc1nn(CC(=O)NCCCN2CCCCC2)c(=O)c2cc(-c3ccccc3)nn12,-49.4
26,COc1cccc(Oc2cncnc2-c2ccc(OC)cc2O)c1,-10.5
27,CCOc1ccc(CN(CC)C(=O)Cc2c[nH]c3ccccc23)cc1OC,-7.96
